# Assay results reported in the supplement of paper PMC8728848.
# The other results are listed elsewhere or left out.
# B1: PitA (Streptococcus oralis), G3F8D8 (protein)
# chain: MNIRFDFKKVQIIARRLVTLLAILFLCAPISLLNADSTTEPQTTLHKTITPISGQDDKYELSLDITSKLGTETQTDPLDVVLVADLSGSMQNQDVQSFDGRTISRIDALKNTLRGTNGRKGLIDTILSNSNNRLSMVGFGGKIDNKKVDQYWDGNKWRLFRPYWPYERMTKYYDGVSPWDDANTILGWSNNARAAKTAVYNMSIAGGNSIGTESGIGTGTNIGAGLTLANQLMGSARSNAKKVVILLSDGFANMVYDANGYTIYNYNNEDPNIETAPQWFWDRLNNNLNSLSYSLAPTLDGFYSIKFRYSNNVDSITSLQYYMRQHNASIPNEIFSANDEDQLRDSFKDITDKILPLGIHHVSIKDVLSKYVQLLPNGSSEFRVVKEKDGSSEILIENQVTFDTKTTSEGLVEVTAKFSPNYSLEDGARYVLKFTVTSSQEALDAIAGDKKLEAGDAEGSDVNKLYSNKGASVTYSYGIGNSQTKTKEYSDNPTFKPSDPLTVPVEVEWQGVTGARTVITADQPSNVELKLVQKNKNGGSDNQDYRKTNVNVSKNVSNETRNFEKVAKGYQYDLIAPDVPAFTKEIKNVGTESKPSFKVIYKQLPSLTIKKVLEAENNLNKEFRIKVKLTSPDSKPLNGTFGEITVVNGEAEIRVEKRKRWEGILSYLPRGTHYKVEEEAASTNGYHVTYENQEGDLNKDETSIVTNHKLPSLSVTKKVTGVFANLLKSFKITINIRDAQNSPLNGTYTATVNNKRTPLQFTNGRASIDLNKDQTIKIYGLPLDSHYTVEEESNSSRGYQVSYENQEGKLDGDKSATVTNNKNSVPETGVDFLSSTLMLGIILPLGGIFFTILLGYLVVHRRK
# Legend:
# Assay in all cases: glycan array binding signal (z-score within array); higher = stronger binding
# Details in all cases: glycan notation: IUPAC condensed, linker removed
# [1] = biological target: Neu5Ac(a2-3)Gal(b1-3)[Neu5Ac(a2-6)]GlcNAc(b1-3)[Fuc(a1-3)[Gal(b1-4)]GlcNAc(b1-6)]Gal(b1-4)Glc
# Outline: (§1)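 Columns mapping to the same glycan were averaged after glycan names were converted to IUPAC-condensed notation. The data come from 3228 arrays in the Consortium for Functional Glycomics database, limited to those with an available protein sequence. Binding is reported as a within-array Z-score averaged across arrays of one protein sequence and across linkers.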
# [2] = biological target: Neu5Ac(a2-3)Gal(b1-4)Glc
# Outline: as §1
# [3] = biological target: Neu5Ac(a2-3)Gal(b1-4)GlcNAc
# Outline: as §1
# [4] = biological target: Neu5Ac(a2-3)Gal(b1-4)GlcNAc(b1-2)Man
# Outline: as §1
# [5] = biological target: Neu5Ac(a2-3)Gal(b1-4)GlcNAc(b1-2)Man(a1-3)[GlcNAc(b1-2)Man(b1-4)GlcNAc(b1-2)Man(a1-6)]Man(b1-4)GlcNAc(b1-4)GlcNAc
# Outline: as §1
# [6] = biological target: Neu5Ac(a2-3)Gal(b1-4)GlcNAc(b1-2)Man(a1-3)[Neu5Ac(a2-3)Gal(b1-4)GlcNAc(b1-2)Man(a1-6)]Man(b1-4)GlcNAc(b1-4)[Fuc(a1-6)]GlcNAc
# Outline: as §1
# [7] = biological target: Neu5Ac(a2-3)Gal(b1-4)GlcNAc(b1-2)Man(a1-3)[Neu5Ac(a2-6)Gal(b1-4)GlcNAc(b1-2)Man(a1-6)]Man(b1-4)GlcNAc(b1-4)GlcNAc
# Outline: as §1
# [8] = biological target: Neu5Ac(a2-3)Gal(b1-4)GlcNAc(b1-2)[Neu5Ac(a2-3)Gal(b1-4)GlcNAc(b1-6)]Man(a1-6)[Neu5Ac(a2-3)Gal(b1-4)GlcNAc(b1-2)Man(a1-3)]Man(b1-4)GlcNAc(b1-4)GlcNAc
# Outline: as §1
# [9] = biological target: Neu5Ac(a2-3)Gal(b1-4)GlcNAc(b1-3)Gal
# Outline: as §1
# [10] = biological target: Neu5Ac(a2-3)Gal(b1-4)GlcNAc(b1-3)Gal(b1-3)GlcNAc
# Outline: as §1
# [11] = biological target: Neu5Ac(a2-3)Gal(b1-4)GlcNAc(b1-3)Gal(b1-4)GlcNAc
# Outline: as §1
# [12] = biological target: Neu5Ac(a2-3)Gal(b1-4)GlcNAc(b1-3)Gal(b1-4)GlcNAc(b1-3)Gal(b1-4)GlcNAc
# Outline: as §1
# [13] = biological target: Neu5Ac(a2-3)Gal(b1-4)GlcNAc(b1-3)Gal(b1-4)[Fuc(a1-3)]GlcNAc
# Outline: as §1
# [14] = biological target: Neu5Ac(a2-3)Gal(b1-4)GlcNAc(b1-3)GalNAc
# Outline: as §1
# [15] = biological target: Neu5Ac(a2-3)Gal(b1-4)GlcNAc(b1-3)[Neu5Ac(a2-3)Gal(b1-4)GlcNAc(b1-6)]GalNAc
# Outline: as §1
# [16] = biological target: Neu5Ac(a2-3)Gal(b1-4)GlcNAc(b1-6)GalNAc
# Outline: as §1
# [17] = biological target: Neu5Ac(a2-3)Gal(b1-4)GlcNAc(b1-6)[Gal(b1-3)]GalNAc
# Outline: as §1
# [18] = biological target: Neu5Ac(a2-3)Gal(b1-4)GlcNAc(b1-6)[Neu5Ac(a2-3)Gal(b1-3)]GalNAc
# Outline: as §1
# [19] = biological target: Neu5Ac(a2-3)Gal(b1-4)GlcNAc6S
# Outline: as §1
# [20] = biological target: Neu5Ac(a2-3)Gal(b1-4)[Fuc(a1-3)]GlcNAc
# Outline: as §1
# [21] = biological target: Neu5Ac(a2-3)Gal(b1-4)[Fuc(a1-3)]GlcNAc(b1-3)Gal
# Outline: as §1
# [22] = biological target: Neu5Ac(a2-3)Gal(b1-4)[Fuc(a1-3)]GlcNAc(b1-3)Gal(b1-4)GlcNAc
# Outline: as §1
# [23] = biological target: Neu5Ac(a2-3)Gal(b1-4)[Fuc(a1-3)]GlcNAc(b1-3)Gal(b1-4)[Fuc(a1-3)]GlcNAc(b1-3)Gal(b1-4)[Fuc(a1-3)]GlcNAc
# Outline: as §1
# [24] = biological target: Neu5Ac(a2-3)Gal(b1-4)[Fuc(a1-3)]GlcNAc(b1-3)GalNAc
# Outline: as §1
# [25] = biological target: Neu5Ac(a2-3)Gal(b1-4)[Fuc(a1-3)]GlcNAc(b1-6)[Gal(b1-3)]GalNAc
# Outline: as §1
# [26] = biological target: Neu5Ac(a2-3)Gal(b1-4)[Fuc(a1-3)]GlcNAc6S
# Outline: as §1
# [27] = biological target: Neu5Ac(a2-3)Gal6S(b1-4)GlcNAc
# Outline: as §1
# [28] = biological target: Neu5Ac(a2-3)Gal6S(b1-4)[Fuc(a1-3)]GlcNAc
# Outline: as §1
# [29] = biological target: Neu5Ac(a2-3)GalNAc
# Outline: as §1
# [30] = biological target: Neu5Ac(a2-3)GalNAc(b1-4)GlcNAc
# Outline: as §1
# [31] = biological target: Neu5Ac(a2-3)[GalNAc(b1-4)]Gal(b1-4)Glc
# Outline: as §1
# [32] = biological target: Neu5Ac(a2-3)[GalNAc(b1-4)]Gal(b1-4)GlcNAc
# Outline: as §1
# [33] = biological target: Neu5Ac(a2-3)[GalNAc(b1-4)]Gal(b1-4)GlcNAc(b1-3)GalNAc
# Outline: as §1
# [34] = biological target: Neu5Ac(a2-3)[Neu5Ac(a2-6)]GalNAc
# Outline: as §1
# [35] = biological target: Neu5Ac(a2-6)Gal
# Outline: as §1
# [36] = biological target: Neu5Ac(a2-6)Gal(b1-3)GlcNAc(b1-3)[Gal(b1-4)GlcNAc(b1-6)]Gal(b1-4)Glc
# Outline: as §1
# [37] = biological target: Neu5Ac(a2-6)Gal(b1-4)Glc
# Outline: as §1
# [38] = biological target: Neu5Ac(a2-6)Gal(b1-4)GlcNAc
# Outline: as §1
# [39] = biological target: Neu5Ac(a2-6)Gal(b1-4)GlcNAc(b1-2)Man(a1-3)Man(b1-4)GlcNAc(b1-4)GlcNAc
# Outline: as §1
# [40] = biological target: Neu5Ac(a2-6)Gal(b1-4)GlcNAc(b1-2)Man(a1-3)[Gal(b1-4)GlcNAc(b1-2)Man(a1-6)]Man(b1-4)GlcNAc(b1-4)GlcNAc
# Outline: as §1
# [41] = biological target: Neu5Ac(a2-6)Gal(b1-4)GlcNAc(b1-2)Man(a1-3)[GlcNAc(b1-2)Man(a1-6)]Man(b1-4)GlcNAc(b1-4)GlcNAc
# Outline: as §1
# [42] = biological target: Neu5Ac(a2-6)Gal(b1-4)GlcNAc(b1-2)Man(a1-3)[GlcNAc(b1-2)Man(b1-4)GlcNAc(b1-2)Man(a1-6)]Man(b1-4)GlcNAc(b1-4)GlcNAc
# Outline: as §1
binder,measurement,setting,value
B1,glycan array binding signal (z-score),[1],-0.365
same,glycan array binding signal (z-score),[2],-0.215
same,glycan array binding signal (z-score),[3],-0.61
same,glycan array binding signal (z-score),[4],1.17
same,glycan array binding signal (z-score),[5],-0.297
same,glycan array binding signal (z-score),[6],-0.163
same,glycan array binding signal (z-score),[7],-0.568
same,glycan array binding signal (z-score),[8],0.998
same,glycan array binding signal (z-score),[9],-0.503
same,glycan array binding signal (z-score),[10],-0.101
same,glycan array binding signal (z-score),[11],-0.543
same,glycan array binding signal (z-score),[12],-0.344
same,glycan array binding signal (z-score),[13],-0.408
same,glycan array binding signal (z-score),[14],-0.265
same,glycan array binding signal (z-score),[15],-0.318
same,glycan array binding signal (z-score),[16],-0.646
same,glycan array binding signal (z-score),[17],0.302
same,glycan array binding signal (z-score),[18],-0.542
same,glycan array binding signal (z-score),[19],-0.668
same,glycan array binding signal (z-score),[20],-0.518
same,glycan array binding signal (z-score),[21],-0.583
same,glycan array binding signal (z-score),[22],1.08
same,glycan array binding signal (z-score),[23],0.263
same,glycan array binding signal (z-score),[24],3.68
same,glycan array binding signal (z-score),[25],2.31
same,glycan array binding signal (z-score),[26],-0.492
same,glycan array binding signal (z-score),[27],-0.201
same,glycan array binding signal (z-score),[28],-0.322
same,glycan array binding signal (z-score),[29],-0.152
same,glycan array binding signal (z-score),[30],-0.515
same,glycan array binding signal (z-score),[31],-0.285
same,glycan array binding signal (z-score),[32],0.347
same,glycan array binding signal (z-score),[33],0.025
same,glycan array binding signal (z-score),[34],-0.488
same,glycan array binding signal (z-score),[35],-0.517
same,glycan array binding signal (z-score),[36],-0.298
same,glycan array binding signal (z-score),[37],-0.522
same,glycan array binding signal (z-score),[38],-0.635
same,glycan array binding signal (z-score),[39],-0.247
same,glycan array binding signal (z-score),[40],-0.337
same,glycan array binding signal (z-score),[41],-0.428
same,glycan array binding signal (z-score),[42],-0.315
